Data as given in the RNAGym collection of RNA variant scans (doi:10.7554/elife.90254).
Read counts are not given, so values of variants with three or more changes are uncertain.

B1: LINE1-mini (parent)
chain: GGCAGAGCUCAACACAGCGUGGCAAAGUGGCUGUGGCUAGACUGCC

Variants of: B1
Assay: self-cleavage, relative activity (ratio to wild type); higher = more cleavage; in vitro, sequencing; the parent is a self-cleaving ribozyme

Row | Variant | self-cleavage
1 | GGCAGCCCUUGACACAGCGUGCCAAAGUGGCUGUGGCUAGACUGCC [A6C G7C C10U A11G G22C] | 0.01
2 | GGCAGAGCUCAACACAUCGUGGCAAAGUGGCUGUGGCUAUAUUGCC [G17U G40U C42U] | 0.03
3 | AGCAGAGCUCAACACAGCGUGGCAAGGUCGCUGUGGCUAGACUGCC [G1A A26G G29C] | 0.18
4 | GGCUGAGCUCAUCACCGCGUGGCAAUGUGGCUGUGGCAAGACUGGC [A4U A12U A16C A26U U38A C45G] | 0.02
5 | GGCAGAGCUAGACACAGCUUGGCAAAGUGGCUGUGGCUAGACUGCU [C10A A11G G19U C46U] | 0.01
6 | GGCAGAGCUUAACACAGCGUGGCAAACUGGCUGUGGAUAGACUGAC [C10U G27C C37A C45A] | 0.01
7 | GGCAGAGCUCAAUACGGCGUGGAAAAGUGGCUGUGGCUUGACUGCC [C13U A16G C23A A39U] | 0.04
8 | GGCAGAGCUCAACACAGCGGGGCAAAGUGGAUCUGGCUAGACUGCC [U20G C31A G33C] | 0.07
9 | GGUAGAGCUCAACACAGCGUGGCAAAGUGGCUGUGUGUAGACUGCC [C3U G36U C37G] | 0.03
10 | GGCAGAGCUCAACACAGCUGGGCAAGGUGGCUGUGGUUAGACUGCC [G19U U20G A26G C37U] | 0.08
11 | GGCAGAGCUGAACACAUCGUGGCCAAGCGGCUGUGGCUAGACUGCC [C10G G17U A24C U28C] | 0.04
12 | GGCAGACCUCAACACAGAUCGGCAAAGUGGCUGUGGCUAGACCGCC [G7C C18A G19U U20C U43C] | 0.08
13 | GGCACAGCUCAACACAGCGUGGCAAAAAGGCUGUGGCUAGACUUCC [G5C G27A U28A G44U] | 0.07
14 | GGCAGAGCUCAACACAGCGUGGUAAAGUCGCGGUGGCUAGACUGCC [C23U G29C U32G] | 0.11
15 | GGCAGAGCUCUACACAGCGAAGGAAAGUGGCUGUGGCUAGACUGCC [A11U U20A G21A C23G] | 0.2
16 | GGCAAAGCUCAACACAGCGUGGCAUAAUGGCUGUGGCUAGACUGCC [G5A A25U G27A] | 0.35
17 | GACAUAGCUCAACACAGCGUGGCAGAGUUGCUGUGGCUAGGCUGCC [G2A G5U A25G G29U A41G] | 0.24
18 | GGCAGAACUCUACAUAGCGAGGCAAAGUGGCUGUGGCUAGACUGCC [G7A A11U C15U U20A] | 0.04
19 | ACCAUAGCUCAACACAGCGUGGCAAAGUGGUUGUGGCUAGACUGCC [G1A G2C G5U C31U] | 0.03

Row | Variant | self-cleavage
20 | GGCAGAGCUCAACCCAGCGUGGGACAGUGGCUGACGCUAGACUGCC [A14C C23G A25C U34A G35C] | 0.07
21 | GGCAGAGCACAACACAGCGUGGCAAAGUGUCAGUGGAUAGACUGCC [U9A G30U U32A C37A] | 0.01
22 | GGCUAUGCUCAACACAGCGUGGCAAAGUGGCUGUGGCUAGACACCC [A4U G5A A6U U43A G44C] | 0.06
23 | GGCAGAGCUUGACACAGCGUGGCCAAGUGGCUGUGGCUUGACUGCC [C10U A11G A24C A39U] | 0.09
24 | GGUAAAGCUCAUCACAGCGUUGCAAAGUGGUUGUGGCUAGACUGCC [C3U G5A A12U G21U C31U] | 0.04
25 | GGCAGAGCUCAACACAGCGUGGCAGAGUGGCUGUUGCUGGACUGCC [A25G G35U A39G] | 0
26 | GGCAGAGCUCAAGACAGCGUGGCAAUGUGGCUGGGGCUAGACUGCU [C13G A26U U34G C46U] | 0.02
27 | GGCAGAGCUCAACACAUCGUCGAAAUGUGGCUGUGGCUAGACUGCC [G17U G21C C23A A26U] | 0.07
28 | GGCAGAGCUAAACACAGCGUGGCAAAGUGGCUGUGGAUAAACUGCC [C10A C37A G40A] | 0
29 | GGGUGAGCUCAACACAGCGUGGCAAAGUGGCUGCGGAUAGACUGCC [C3G A4U U34C C37A] | 0.05
30 | GGCAGAGCUCAAUACAGCGUAGCAAAGUUGCUGUGGCUAGACUGCC [C13U G21A G29U] | 0.18
31 | GGCAUAGCUCAACACAGCGUGGCAUAGAGGCUGCGCCUAGACUGCC [G5U A25U U28A U34C G36C] | 0.02
32 | GGCAGGGCUCAACACAGCGGGGCAAAGUGGCUGUGGCUAGACUGAC [A6G U20G C45A] | 0.12
33 | GGCAGAGCUCAACACAGCUUGGCAAACUGGCUGUGGCUAGACUGCG [G19U G27C C46G] | 0.56
34 | GGCAGAGCUUAACAUAGUGUGGCAAAGAGUUUGUGGCUUGACUGCC [C10U C15U C18U U28A G30U C31U A39U] | 0.04
35 | UGCAGAGCUCAACACAGCGUGGCAAAGUGGCUUUGACUAGACUGCC [G1U G33U G36A] | 0
36 | CGCAGGGCUCAACACAGCGUGGCAAAGUGGCUGUGGCUAGACUGAC [G1C A6G C45A] | 0.02
37 | GGCACAUCUCAACACGGCGUGGCAAAGUGGAUGUGGCUAAACUGCC [G5C G7U A16G C31A G40A] | 0.08
38 | GGCAGAGCUCAACACAGGCAGGCAAAGUGGAUGUGGCUAGACUGCC [C18G G19C U20A C31A] | 0.17

Row | Variant | self-cleavage
39 | GGCAGGGCUCAACACGGCGUGGCAAAGUGGCUGUGGCGAGACUGCU [A6G A16G U38G C46U] | 0
40 | GUCAGAGCUCAAUACAGAGUGGGAAAGUGGCUGUGGCUAGACUGCC [G2U C13U C18A C23G] | 0.01
41 | GGCAGAGCUCCACACAGCGUGGCAACGUGGCUGUGGCGAGACUGGC [A11C A26C U38G C45G] | 0
42 | UGCGGAGCUCAACACAGCGUGGGUAAGUGGCUGUGGCUACACUGCC [G1U A4G C23G A24U G40C] | 0.08
43 | GGCAGAGCUCAGCAAAGCGUGGUAAAGUUGCUGUGGCUAGACUGCC [A12G C15A C23U G29U] | 0.02
44 | GGCAGAGCUGAACAUAGCGUGGCAAAGUGGCUGUGGCUAUACUGCC [C10G C15U G40U] | 0.01
45 | GGCAGAGCUCAACACUGUUUGGCAAAGUGGCUGUAGCUAGACUGCC [A16U C18U G19U G35A] | 0.03
46 | GGCUGAGCUCAACACGGCGUGGCGAAGUGGCUGUGGUUAGACUGCC [A4U A16G A24G C37U] | 0.05
47 | GGCAGAGCCCAACACAGCGUGGCAAAAUGGGUGUGGCUAGACUGCC [U9C G27A C31G] | 0.03
48 | GGCAGAGCUCAACCCAGCGAGGCAGAGUGGCUGUGGCUAGACUGCA [A14C U20A A25G C46A] | 0
49 | GGCAGAGCUCAACACAGCGUGGCAAACUUGCUGUGGCUAAACUGCC [G27C G29U G40A] | 0.03
50 | GGUAGAGCUCAACACAGCGUGGCAAACUGGCUAUGGCUAGAUUGCC [C3U G27C G33A C42U] | 0.08
51 | GGCAGAGCUGAACACAGCGUUGCAAAGUGGCUGUGGUUAGACUACC [C10G G21U C37U G44A] | 0.03
52 | GGCAGAGCUCAACACAGCGUGUCAAAGUGGCCGUGGCUAGACAGGA [G22U U32C U43A C45G C46A] | 0.01
53 | GGCAGAGCUCAACACAGCGUGGCAAAGUGGUUGCGGCUAGACUGCA [C31U U34C C46A] | 0.02
54 | UGCAGAGCACAACGCAGCGUGGCAAAGUGGCUGUGGCUACACGGCC [G1U U9A A14G G40C U43G] | 0.19
55 | GGCAAAUCUCAACACAGCGUGACAAAGUGGCUGUGGCUAGACUGCC [G5A G7U G22A] | 0.12
56 | GGCAGAGCGCAACACAGAGUGGCAAAUUGGCUGUGGCUAGACUGCC [U9G C18A G27U] | 0
